From article PMC10577379, “Isolation of anticancer bioactive secondary metabolites from the sponge-derived endophytic fungi Penicillium sp. and in-silico computational docking approach” (Frontiers in Microbiology, 2023)

Experiments:
[1] = system: Influenza A virus H1N1 (ATCC, VR-1520); experiment: Antiviral CPE inhibition assay; conditions: H1N1, 48 h, read-out: Antiviral IC50 H1N1
[2] = system: Influenza A virus H3N2 (ATCC, VR-1679); experiment: Antiviral CPE inhibition assay; conditions: H3N2, 48 h, read-out: Antiviral IC50 H3N2

| SMILES | IC50 [1] | IC50 [2] |
| --- | --- | --- |
| COc1cc(O)cc2c1C(=O)c1c(O)cc(C)cc1C2=O [Compound 5, methyl emodin] | > 50 nM | > 50 nM |
| CC12CCCC(O1)c1c(cc3c(c1O)C(=O)c1c(O)cc(O)cc1C3=O)O2 (stereo not drawn) [Compound 1, averufin] | > 50 nM | > 50 nM |
| Cc1cc(O)cc(Oc2cc(C)cc(O)c2)c1 [Compound 7, diorcinol] | > 50 nM | > 50 nM |
| COC(=O)c1cc(O)cc(OC)c1C(=O)c1c(O)cc(C)cc1O [Compound 3, sulochrin] | > 50 nM | > 50 nM |
| CCOC(=O)C1=C[C@@H](OC(CC)CC)[C@H](NC(C)=O)[C@@H](N)C1 [Tamiflu, reference compound] | 15.2 nM | 17.6 nM |
| CCCCC[C@@H](c1ccc(Oc2cc(C)cc(O)c2)cc1)c1c(O)cc2c(c1O)C(=O)c1cc(O)cc(O)c1C2=O [Compound 2, aspergilol-A] | > 50 nM | > 50 nM |
